Several values for one entry are separate records, joined by “and”; a condition that tells them apart may be missing. Identical values can stand only once. Counter-ions that a name gives are not always drawn. Among all 5,800 compounds or so, about 620 (11%) showed activity.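 The calls were made as follows: active = score above a cut-off or among the top three wells of a plate; in these data no inactive exceeds 0.85.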 Only a part is listed here, and it is no random draw.
System: primary human hepatic stellate cells (donor 1)
Assay: scaled lipid accumulation score (0 = DMSO-like, 1 = nortriptyline-like); higher = stronger HSC inactivation (lipid re-accumulation), active = hit call of the paper
Conditions: 48 h
[1] = library stock concentration: 1 mM
[2] = library stock concentration: 10 mM
[3] = library stock concentration: 3.33 mM
[4] = library stock concentration: 80 uM
[5] = library stock concentration: 400 uM
[6] = library stock concentration: 2 mM

CCCCCCCC/C=C\CCCCCCCC(=O)OCC [Oleic Acid ethyl ester]
scaled lipid accumulation score [1]: inactive: 0.015

CNCc1ccc(-c2[nH]c3cc(F)cc4c3c2CCNC4=O)cc1.O=P(O)(O)O
scaled lipid accumulation score [2]: active: 1.47

Cc1ccc(NC(=O)C2(c3ccc4c(c3)OC(F)(F)O4)CC2)nc1-c1cccc(C(=O)O)c1 [VX-809 (Lumacaftor)]
scaled lipid accumulation score [3]: inactive: ≤ 0
scaled lipid accumulation score [2]: inactive: ≤ 0

C[C@H]1[C@H](C)CC[C@]2(C(=O)O[C@@H]3O[C@H](CO[C@@H]4O[C@H](CO)[C@@H](O[C@@H]5O[C@H](C)[C@H](O)[C@@H](O)[C@H]5O)[C@H](O)[C@H]4O)[C@@H](O)[C@H](O)[C@H]3O)CC[C@]3(C)C(=CC[C@@H]4[C@@]5(C)C[C@@H](O)[C@H](O)[C@@](C)(CO)[C@@H]5CC[C@]43C)[C@H]12 [Asiaticoside]
scaled lipid accumulation score: inactive: ≤ 0

Cc1c(O)c(=O)n(-c2ccccc2)n1C [Antipyrine, 4-hydroxy]
scaled lipid accumulation score: inactive: ≤ 0

CC(C)OC(=O)C(C)(C)Oc1ccc(C(=O)c2ccc(Cl)cc2)cc1
scaled lipid accumulation score [2]: inactive: 0.308

CC(C)OC(=O)C(C)(C)Oc1ccc(C(=O)c2ccc(Cl)cc2)cc1 [Fenofibrate]
scaled lipid accumulation score: inactive: ≤ 0
scaled lipid accumulation score [1]: inactive: 0.007
scaled lipid accumulation score [3]: inactive: ≤ 0
scaled lipid accumulation score [2]: inactive: ≤ 0 and inactive: ≤ -0.07

O=[N+]([O-])c1ccc(CSc2ncnc3c2ncn3[C@@H]2O[C@H](CO)[C@@H](O)[C@H]2O)cc1 [S-(4-Nitrobenzyl)-6-thioinosine]
scaled lipid accumulation score [2]: inactive: 0.055

CC(=O)c1c(C)c2cnc(Nc3ccc(N4CCNCC4)cn3)nc2n(C2CCCC2)c1=O
scaled lipid accumulation score [4]: inactive: ≤ 0
scaled lipid accumulation score [5]: inactive: ≤ 0
scaled lipid accumulation score [6]: inactive: ≤ 0
scaled lipid accumulation score [3]: inactive: ≤ 0
scaled lipid accumulation score [2]: inactive: 0.483 and inactive: ≤ 0

CCCCCCCCCCCCC/C=C/[C@@H](O)[C@H](CO)N(C)C [N,N-Dimethylsphingosine]
scaled lipid accumulation score [1]: active: 0.965

Clc1ccc2c(N3CCN(CCCN4CCN(c5ccnc6cc(Cl)ccc56)CC4)CC3)ccnc2c1 [Piperaquine tetraphosphate tetrahydrate]
scaled lipid accumulation score [2]: inactive: 0.316

Cn1cc(CNCC2CCN(c3ncc(C(=O)NO)cn3)CC2)c2ccccc21
scaled lipid accumulation score [2]: active: 0.985

CC(C)(C)c1ccc(S(=O)(=O)/C=C/C#N)cc1
scaled lipid accumulation score [2]: inactive: 0.172

CN1CCCN=C1/C=C/c1cccc(O)c1 [Oxantel pamoate]
scaled lipid accumulation score: inactive: ≤ 0

Cl.O=C(NCCCN1CCCCCC1)C(c1ccccc1)C1CCCCC1 (configuration not stated)
scaled lipid accumulation score [2]: active: 0.897

CC(N)CCCC(C)(C)O (configuration not stated) [Heptaminol hydrochloride]
scaled lipid accumulation score: inactive: ≤ 0
scaled lipid accumulation score [2]: inactive: ≤ -0.027

C[C@@H](O[C@H]1OCCN(Cc2n[nH]c(=O)[nH]2)[C@H]1c1ccc(F)cc1)c1cc(C(F)(F)F)cc(C(F)(F)F)c1 [Aprepitant]
scaled lipid accumulation score [3]: inactive: ≤ 0
scaled lipid accumulation score [2]: inactive: ≤ 0

Oc1cccc(O)c1 [Resorcinol]
scaled lipid accumulation score [2]: inactive: ≤ 0
scaled lipid accumulation score (library stock concentration: 18.2 mM): inactive: ≤ 0

Cc1cc(O)cc(C)c1Cl [Chloroxylenol]
scaled lipid accumulation score [2]: inactive: ≤ 0

NC(=O)c1ccc(-c2nc(-c3ccccn3)c(-c3ccc4c(c3)OCO4)[nH]2)cc1
scaled lipid accumulation score [1]: inactive: ≤ 0
scaled lipid accumulation score [3]: inactive: ≤ 0
scaled lipid accumulation score [2]: inactive: ≤ 0 and inactive: 0.083
scaled lipid accumulation score (library stock concentration: 13 mM): inactive: 0.006

Cc1cn(-c2cc(NC(=O)c3ccc(C)c(Nc4nccc(-c5cccnc5)n4)c3)cc(C(F)(F)F)c2)cn1 [Nilotinib (AMN107, Tasigna) (10 mM)]
scaled lipid accumulation score [2]: inactive: 0.552

Cc1cn(-c2cc(NC(=O)c3ccc(C)c(Nc4nccc(-c5cccnc5)n4)c3)cc(C(F)(F)F)c2)cn1 [Nilotinib (AMN-107)]
scaled lipid accumulation score [3]: inactive: 0.438
scaled lipid accumulation score [2]: inactive: 0.668

Cc1cn(-c2cc(NC(=O)c3ccc(C)c(Nc4nccc(-c5cccnc5)n4)c3)cc(C(F)(F)F)c2)cn1 [Nilotinib (AMN107, Tasigna) (0.4 mM)]
scaled lipid accumulation score [5]: inactive: 0.053

Cc1cn(-c2cc(NC(=O)c3ccc(C)c(Nc4nccc(-c5cccnc5)n4)c3)cc(C(F)(F)F)c2)cn1
scaled lipid accumulation score [4]: inactive: ≤ -0.009
scaled lipid accumulation score [5]: inactive: 0.035
scaled lipid accumulation score [6]: inactive: ≤ -0.009
scaled lipid accumulation score [2]: inactive: ≤ -0.008

Cc1cn(-c2cc(NC(=O)c3ccc(C)c(Nc4nccc(-c5cccnc5)n4)c3)cc(C(F)(F)F)c2)cn1 [Nilotinib (AMN107, Tasigna) (2 mM)]
scaled lipid accumulation score [6]: inactive: ≤ -0.005

CCCCN(CCCC)CC(O)c1cc(Cl)cc2c1-c1ccc(Cl)cc1/C2=C/c1ccc(Cl)cc1 (configuration not stated) [Lumefantrine]
scaled lipid accumulation score [2]: inactive: 0.051

O=C(O)c1cc(=O)c2c(Cl)cc(Cl)cc2[nH]1 [5,7-Dichlorokynurenic acid]
scaled lipid accumulation score [2]: inactive: 0.031 and inactive: 0.027

CC(COc1ccccc1Cc1ccccc1)N1CCCCC1.O=P(O)(O)O (configuration not stated)
scaled lipid accumulation score [2]: active: 1.02

CCCNC(=O)Nc1ccc(Oc2ncnc3cc(OC)c(OC)cc23)cc1Cl
scaled lipid accumulation score [4]: inactive: ≤ 0
scaled lipid accumulation score [5]: inactive: ≤ 0
scaled lipid accumulation score [6]: inactive: ≤ 0
scaled lipid accumulation score [3]: inactive: ≤ 0
scaled lipid accumulation score [2]: inactive: ≤ 0 and inactive: 0.284

CCCCC[C@H](O)/C=C/[C@H]1CC[C@@H](O)[C@@H]1CCCCCCC(=O)O [11-deoxy Prostaglandin F1.beta.]
scaled lipid accumulation score [1]: inactive: ≤ 0

CN(C)C(=O)C(=O)c1cn(C)c2cc(Cl)c(C(=O)N3CCC(Cc4ccc(F)cc4)CC3)cc12
scaled lipid accumulation score [2]: inactive: 0.039

CN(C)CC/C=C1\c2ccccc2Sc2ccc(Cl)cc21.Cl [Chlorprothixene hydrochloride]
scaled lipid accumulation score: active: 0.902

O=C1C=CC(=O)C2=C1C1c3ccccc3C2c2ccccc21
scaled lipid accumulation score [2]: active: 0.953

OCCCNc1cc(-c2ccnc(Nc3cccc(Cl)c3)n2)ccn1
scaled lipid accumulation score [2]: active: 0.957

Nc1c2ccccc2nc2ccccc12 [Aminacrine]
scaled lipid accumulation score [2]: inactive: 0.499

CS(=O)(=O)c1ccc(-n2nc(C(F)(F)F)cc2-c2ccc(F)cc2)cc1
scaled lipid accumulation score [2]: inactive: ≤ -0.055

Cc1ccc(=O)n(-c2ccccc2)c1 [Pirfenidone]
scaled lipid accumulation score [3]: inactive: ≤ 0
scaled lipid accumulation score [2]: inactive: ≤ 0 and inactive: ≤ -0.055 and inactive: ≤ -0.006

OCC(O)CCO/N=C1\C(c2c(O)[nH]c3ccccc23)=Nc2ccccc21 (configuration not stated) [Indirubin Derivative E804]
scaled lipid accumulation score [3]: inactive: ≤ 0

Cc1cc(CN2CCN(c3c(Br)cnc4nc(-c5ccc(N6CCN(C)CC6)cc5)[nH]c34)CC2)no1
scaled lipid accumulation score [2]: inactive: 0.471

O=C(O)/C=C\C(=O)O.O=C(O)/C=C\C(=O)O.c1cc(CN2CCCCC2)cc(OCCCNc2nc3ccccc3s2)c1 [Zolantidine dimaleate]
scaled lipid accumulation score [2]: active: 1.5

COc1ccc(C2CC(=O)c3c(O)cc(OC4OC(COC5OC(C)C(O)C(O)C5O)C(O)C(O)C4O)cc3O2)cc1OC (configuration not stated) [Methyl-Hesperidin]
scaled lipid accumulation score [3]: inactive: ≤ 0
scaled lipid accumulation score [2]: inactive: ≤ 0

Cl/C(=C\n1cncn1)c1ccc(Cl)cc1Cl [Loreclezole hydrochloride]
scaled lipid accumulation score [2]: inactive: 0.005

O=C(Oc1cc(S(=O)(=O)c2ccccc2)ccc1[N+](=O)[O-])c1ccc(Cl)cc1
scaled lipid accumulation score [3]: inactive: ≤ -0.009
scaled lipid accumulation score [2]: inactive: ≤ 0

CCC(=O)NC1Cc2ccccc2C(c2ccccc2)C1 (configuration not stated)
scaled lipid accumulation score [2]: inactive: ≤ -0.006

N[C@@H](Cc1cc(I)c(Oc2ccc(O)c(I)c2)c(I)c1)C(=O)O
scaled lipid accumulation score [2]: inactive: 0.052

N[C@@H](Cc1cc(I)c(Oc2ccc(O)c(I)c2)c(I)c1)C(=O)O [Liothyronine (l- isomer) sodium]
scaled lipid accumulation score (library stock concentration: 3 mM): inactive: ≤ 0

N[C@@H](Cc1cc(I)c(Oc2ccc(O)c(I)c2)c(I)c1)C(=O)O [Liothyronine sodium]
scaled lipid accumulation score [2]: inactive: 0.105

N[C@@H](Cc1cc(I)c(Oc2ccc(O)c(I)c2)c(I)c1)C(=O)O [Liothyronine Sodium]
scaled lipid accumulation score [3]: inactive: ≤ 0
scaled lipid accumulation score [2]: inactive: ≤ -0.001

N[C@@H](Cc1cc(I)c(Oc2ccc(O)c(I)c2)c(I)c1)C(=O)O [Liothyronine]
scaled lipid accumulation score: inactive: ≤ 0
scaled lipid accumulation score (library stock concentration: 3.1 mM): inactive: ≤ 0

NC[C@@H]1O[C@@H](O[C@H]2[C@H](O)[C@@H](O[C@H]3O[C@H](CO)[C@@H](O)[C@H](N)[C@H]3O)[C@H](N)C[C@@H]2N)[C@@H](O)[C@H](O)[C@H]1O [Kanamycin A sulfate]
scaled lipid accumulation score: inactive: ≤ 0

NC[C@@H]1O[C@@H](O[C@H]2[C@H](O)[C@@H](O[C@H]3O[C@H](CO)[C@@H](O)[C@H](N)[C@H]3O)[C@H](N)C[C@@H]2N)[C@@H](O)[C@H](O)[C@H]1O [Kanamycin a sulfate]
scaled lipid accumulation score [2]: inactive: ≤ 0

Nc1nc(-c2ccc(Cl)c(Cl)c2)c(-c2ccncc2)s1 [CGH 2466 dihydrochloride]
scaled lipid accumulation score [2]: inactive: 0.001

N[C@@H](CS(=O)O)C(=O)O [L-Cysteinesulfinic Acid]
scaled lipid accumulation score [2]: inactive: ≤ 0

N[C@@H](CS(=O)O)C(=O)O [L-Cysteinesulfinic acid]
scaled lipid accumulation score [2]: inactive: ≤ 0

CCCCCCCCCCCCCCCCCCOCC(O)COP(=O)([O-])OCC[N+](C)(C)C (configuration not stated)
scaled lipid accumulation score [1]: inactive: ≤ 0

COC(=O)[C@H](NC(=O)c1cc(-c2ccccc2)nc2ccccc12)c1ccccc1
scaled lipid accumulation score [2]: inactive: 0.074 and inactive: ≤ -0.006

N#Cc1cc2nc(O)c(O)nc2cc1[N+](=O)[O-] [CNQX disodium]
scaled lipid accumulation score [2]: inactive: ≤ -0.07

N#Cc1cc2nc(O)c(O)nc2cc1[N+](=O)[O-] [CNQX disodium salt]
scaled lipid accumulation score [2]: inactive: 0.017

COC(=O)C1=C(C#N)NC(C)=C(C(=O)OC(C)C)C1c1cccc([N+](=O)[O-])c1 (configuration not stated) [Nilvadipine]
scaled lipid accumulation score [3]: inactive: ≤ 0
scaled lipid accumulation score [2]: inactive: ≤ 0
